In the supplement of paper PMC12217912:
The list shows a part of the results. The full chains were built here from the parent and the listed change. Inactive controls read about 0.05.

B1: TEV protease; numbered along this chain (parent)
chain: MGESLFKGPRDYNPISSSICHLTNESDGHTTSLYGIGFGPFIITNKHLFRRNNGTLVVQSLHGVFKVKDTTTLQQHLVDGRDMIIIRMPKDFPPFPQKLKFREPQREERICLVTTNFQTKSMSSMVSDTSCTFPSGDGIFWKHWIQTKDGQCGSPLVSTRDGFIVGIHSASNFTNTNNYFTSVPKNFMELLTNQEAQQWVSGWRLNADSVLWGGHKVFMVKPEEPFQPVKEATQL

Variants of: B1
Assay: raw area under fraction-flipped curve 0-4 h after induction (AUC4h, not background-subtracted), DNA-recorder readout of cleavage of the substrate (dimensionless); higher = more cleavage of the substrate by the protease variant
Conditions: temperature: 34 °C; time window: 0-4 h after rhamnose induction
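Further: Bxb1 expression induced with 0.2% (w/v) L-rhamnose at OD600 near 0.5, cultures sampled hourly, flipped fraction per protease–substrate barcode pair counted by paired-end Illumina sequencing.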

Variant	area with substrate ENLDFQS	area with substrate ENLEFQS	area with substrate ENLFFQS	area with substrate ENLHFQS	area with substrate ENLIFQS	area with substrate ENLPFQS	area with substrate ENLVFQS	area with substrate ENLNFQS	area with substrate ENLSFQS	area with substrate ENLWFQS	area with substrate ENLKFQS	area with substrate ENLLFQS	area with substrate ENLRFQS	area with substrate ENLMFQS	area with substrate ENLQFQS	area with substrate ENLTFQS	area with substrate ENLGFQS
G2R	0.0575	0.0622	0.107	0.0723	0.11	0.0676	0.0701										
E3L	0.0576	0.0519	0.0742	0.0587	0.0756	0.0591	0.0648	0.0638	0.0631	0.0643							
L5K	0.0634		0.0975	0.0663		0.0404		0.0747	0.0532	0.0441	0.0767	0.0644	0.0786				
L5W	0.0639	0.0547	0.0901	0.0661	0.0971		0.108					0.0926					
F6S	0.0754		0.129		0.114	0.0668		0.0715	0.0811								
R10Y	0.055	0.0513	0.0776			0.0686	0.0759	0.0716	0.0564	0.058	0.0777	0.0616	0.0651	0.0698	0.0842		
L22Q	0.0597		0.0481	0.0607	0.0463	0.045	0.0444	0.0545	0.0462	0.0419	0.048	0.0377	0.0462		0.03		
Y34A	0.0643		0.0517	0.0559					0.0594			0.0738		0.0767		0.0607	
Y34S	0.0639	0.0073	0.0636	0.0635	0.065	0.0471		0.0609		0.0468	0.0084		0.0683				0.103
R51Y	0.0739		0.0682			0.0502	0.105		0.0767	0.071			0.0772		0.077		0.0893
N52L	0.0599	0.0662		0.0656	0.0297	0.0603	0.0662	0.0613	0.0524	0.0543	0.0707	0.0513	0.0583	0.0535	0.0514		
G54E	0.0596	0.0595	0.0641	0.0484	0.0684	0.057	0.07	0.0639	0.0357		0.0636	0.0569	0.0568		0.0449		
T55A	0.0625	0.0645	0.0784	0.0862	0.0807			0.0366		0.0782				0.0679			
Q59D	0.0476		0.11		0.0837	0.0476		0.0639	0.0503					0.0625			
Q59L	0.056		0.0852				0.0823		0.0565		0.0932		0.0889				
K66N	0.0515	0.0539		0.0563			0.0976	0.0583	0.0507		0.0758	0.0717	0.0805				
V67N	0.0653		0.0615		0.0581				0.0272	0.0507	0.0501						
T71G	0.0675	0.0561	0.0702	0.0668	0.074	0.0584		0.0717			0.0667		0.0698		0.0598	0.0615	
